88 molecules from PMC4336329 (PLoS ONE, 2015) can be followed below.

Hit rate of the full screen: of about 310,000 compounds, about 14,000 (4.5%) showed an effect of 50% or more. The effect is printed as a negative number. The list shows a part of the results.
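Note: peak tail current of the secondary pulse compared with the same well before compound.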

The target of the test is human ether-à-go-go-related gene (hERG) potassium channel (human, UniProt Q12809). The experiment in a line: primary screen, population patch clamp on CHO cells stably expressing hERG.
human ether-à-go-go-related gene (hERG) potassium channel, sequence (Q12809 whole entry, looked up): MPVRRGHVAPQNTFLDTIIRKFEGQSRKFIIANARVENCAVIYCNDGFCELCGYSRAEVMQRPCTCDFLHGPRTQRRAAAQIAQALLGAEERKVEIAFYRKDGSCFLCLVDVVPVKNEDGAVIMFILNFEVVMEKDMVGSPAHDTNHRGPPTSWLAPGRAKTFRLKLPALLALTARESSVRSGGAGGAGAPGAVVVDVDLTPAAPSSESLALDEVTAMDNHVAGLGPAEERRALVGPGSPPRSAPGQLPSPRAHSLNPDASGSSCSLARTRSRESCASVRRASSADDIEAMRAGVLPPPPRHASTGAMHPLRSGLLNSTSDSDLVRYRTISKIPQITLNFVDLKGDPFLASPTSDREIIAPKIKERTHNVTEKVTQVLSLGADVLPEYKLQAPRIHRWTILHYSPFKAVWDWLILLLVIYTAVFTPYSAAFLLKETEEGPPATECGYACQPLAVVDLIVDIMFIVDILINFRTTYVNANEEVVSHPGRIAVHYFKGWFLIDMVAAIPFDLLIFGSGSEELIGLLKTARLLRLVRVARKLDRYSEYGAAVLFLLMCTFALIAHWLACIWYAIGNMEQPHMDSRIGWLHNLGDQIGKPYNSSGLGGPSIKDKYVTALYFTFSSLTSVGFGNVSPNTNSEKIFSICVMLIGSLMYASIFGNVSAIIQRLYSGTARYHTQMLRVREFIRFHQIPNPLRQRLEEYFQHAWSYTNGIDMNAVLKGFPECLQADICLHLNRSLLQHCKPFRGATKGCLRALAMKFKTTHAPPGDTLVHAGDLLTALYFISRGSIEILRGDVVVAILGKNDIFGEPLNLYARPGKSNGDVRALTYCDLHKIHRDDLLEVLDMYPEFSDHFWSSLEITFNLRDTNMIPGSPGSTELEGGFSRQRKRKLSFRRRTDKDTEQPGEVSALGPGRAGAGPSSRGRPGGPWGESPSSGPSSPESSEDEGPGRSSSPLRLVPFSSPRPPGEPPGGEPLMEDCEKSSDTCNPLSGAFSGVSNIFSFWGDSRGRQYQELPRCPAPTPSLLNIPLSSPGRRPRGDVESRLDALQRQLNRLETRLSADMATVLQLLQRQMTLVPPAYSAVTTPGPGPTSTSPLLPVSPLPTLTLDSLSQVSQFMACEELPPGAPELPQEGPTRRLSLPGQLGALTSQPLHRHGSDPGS
With `Cc1ccc(NC(=O)C2(c3ccccc3)CC2(Cl)Cl)cc1C` (stereo not shown), the “hERG current change (%, negative = inhibition) at 10uM” value is reported as 13%.
As for `N#CC1=C(S)N=C(N)C(c2nc(-c3ccccc3)cs2)C12CCCC2` (stereo not shown), the “hERG current change (%, negative = inhibition) at 10uM” value is reported as 6.39%.
With `CCOC(=O)C1CCCN(S(=O)(=O)c2c(C)noc2C)C1` (stereo not shown), the “hERG current change (%, negative = inhibition) at 10uM” value amounted to 0.934%.
Turning to `COc1ccc(-c2nc(CCl)cs2)cc1OC.Cl`, the “hERG current change (%, negative = inhibition) at 10uM” value is -12.5%.
For `COc1ccc(/C=N/NC(=O)NC23CC4CC(CC(C4)C2)C3)c(OC)c1`, the “hERG current change (%, negative = inhibition) at 10uM” value was 20.1%.
The same measure for `O=[N+]([O-])c1ccc(CS(=O)(=O)N2CCN(c3ccccc3)CC2)cc1`: 9.29%; for `COc1ccc(-c2noc(CCC(=O)NCCc3ccccc3)n2)cc1OC`: 13.9%.
For `Cl.O=C(CNCC1CCCCC1)Nc1ccc(OC(F)(F)F)cc1`, the “hERG current change (%, negative = inhibition) at 10uM” value is recorded as -62.4%.
Turning to `Cc1ccc(-n2nc3c(=O)n(CCCC(=O)NCC(C)c4ccccc4)nc(C)c3c2C)cc1` (stereo not shown), the “hERG current change (%, negative = inhibition) at 10uM” value is reported as -38.1%.
`COc1ccccc1CC1(C)NC(=O)N(CC(=O)N2CC(C)OC(C)C2)C1=O` (stereo not shown): the “hERG current change (%, negative = inhibition) at 10uM” value was 9.11%.
To `CCOc1ccc(OCc2ccc(C(=O)NC(C)(C)C)o2)cc1` belongs 7.35%; to `CCC(C)COC(c1ccccc1)(c1ccccc1)C(Oc1nc(C)cc(C)n1)C(=O)O` (stereo not shown), 14.6%; to `CN(C)CCn1nnnc1SCC1=C(C(=O)O)N2C(=O)[C@@H](NC(=O)Cc3csc(N)n3)[C@H]2SC1.Cl`, 19.8%.
For `CC(C)=CC(=O)OCC(=O)Nc1ncc(Cl)c(C)c1Cl`, the “hERG current change (%, negative = inhibition) at 10uM” value is -0.811%.
For `CC(=O)O[C@@]1(C)C[C@@H](O)[C@]2(O)C=CO[C@@H](O[C@@H]3O[C@H](CO)[C@@H](O)[C@H](O)[C@H]3O)[C@@H]21`, the “hERG current change (%, negative = inhibition) at 10uM” value is 16.5%.
The same measure for `NC(=O)C1CCN(Cc2cccc(OCc3ccccc3)c2)CC1.O=C(O)C(=O)O`: -12%; for `C=CCn1c(N)c(C(=O)Nc2cccc(C)c2)c2nc3ccccc3nc21`: 22.6%; for `CC(C)CCNC(=O)CCS(=O)(=O)c1cccc2nonc12`: 12.8%.
Regarding `Br.COc1ncnc2c1N=C1CC(C)(C)CC(N)=C1S2`, the “hERG current change (%, negative = inhibition) at 10uM” value is -10.4%.
As for `Cc1ccc(NC(=O)c2ccc(NCCCN3CCC(C)CC3)c([N+](=O)[O-])c2)cc1F.Cl`, the “hERG current change (%, negative = inhibition) at 10uM” value is listed as -8.31%.
The same measure for `CC(=O)c1ccc(-n2c(CCC(=O)O)ccc2-c2ccc(Cl)cc2)cc1`: 8.55%; for `Cc1cc(C)cc(NC(=S)N(CCN(C)C)C(C)c2cccnc2)c1` (stereo not shown): -31.7%; for `COc1ccccc1C(=O)N1CCC(C(=O)c2ccc(F)cc2)CC1`: -3.13%.
Take `O=C(Nc1cccc(C(F)(F)F)c1)c1cccnn1`: the “hERG current change (%, negative = inhibition) at 10uM” value is listed as -20.1%.
Take `CSCCC(NS(=O)(=O)c1ccc(Cl)cc1)C(=O)OCC(=O)NC1CC1` (stereo not shown): the “hERG current change (%, negative = inhibition) at 10uM” value was determined as 1.29%.
As to `C/C(=N\NC(=O)c1ccc2c(c1)OCO2)c1ccc(O)cc1`, the “hERG current change (%, negative = inhibition) at 10uM” value is reported as 13.1%.
Regarding `Cc1ccc(NS(=O)(=O)c2ccccc2Cl)c2c1CC(C)(C)O2`, the “hERG current change (%, negative = inhibition) at 10uM” value is on record as 1.03%.
On to `Cc1ccc(S(=O)(=O)NC(CC(=O)NC2CCCC2)c2ccco2)cc1` (stereo not shown), for which the “hERG current change (%, negative = inhibition) at 10uM” value is given as -3.68%.
`COc1ccc(NC2=CC(c3cccc(OC)c3)N(c3ccc(OC)cc3)C2=O)cc1` (stereo not shown): the “hERG current change (%, negative = inhibition) at 10uM” value is 1.72%.
To `CC(C)(C)/C=N/NC(=O)CNC(=O)c1ccc2c(c1)OCCO2` belongs 15.6%.
Consider `O=[N+]([O-])c1ccc2c(c1)C(c1ccccc1)=NCCN2`, for which the “hERG current change (%, negative = inhibition) at 10uM” value is -69.1%.
Take `COc1ccccc1S(=O)(=O)Nc1ccc(S(=O)(=O)Nc2nccs2)cc1`: the “hERG current change (%, negative = inhibition) at 10uM” value is on record as -0.444%.
As to `Cc1ccc2c(c1)-c1ncc(C(=O)c3cc(Br)ccc3O)cc1CO2`, the “hERG current change (%, negative = inhibition) at 10uM” value came to 15.7%.
Consider `O=C(CC1SC(=NCc2ccccc2)NC1=O)Nc1ccccc1` (stereo not shown), for which the “hERG current change (%, negative = inhibition) at 10uM” value turned out to be 10.8%.
For `Cc1csc(NC(=O)CNC(=O)OCc2ccccc2)n1`, the “hERG current change (%, negative = inhibition) at 10uM” value is 1.19%.
To `CCOc1ccccc1CN1CCC(O)CC1` belongs 12.1%; to `Cc1oc2cc3oc(=O)c(CCC(=O)NCCC(=O)O)c(C)c3cc2c1C`, 35.9%.
The same measure for `CCCCc1cc2ccccc2c(OCCN(C)C)n1.Cl`: -61.9%; for `CCOc1ccc(N2C(=O)C3ON(c4ccccc4)C(c4ccco4)C3C2=O)cc1` (stereo not shown): 2.11%.
As to `S=C(NCCc1ccccc1)NC1CC1`, the “hERG current change (%, negative = inhibition) at 10uM” value is 24.3%.
Regarding `Cc1ccc(-c2nnn(CC(=O)N(Cc3cccs3)C(C(=O)NC(C)(C)C)c3ccc(C)o3)n2)o1` (stereo not shown), the “hERG current change (%, negative = inhibition) at 10uM” value was -12%.
As to `Cc1c(C(=O)Nc2cccc(F)c2)cnn1-c1ccccc1`, the “hERG current change (%, negative = inhibition) at 10uM” value was -3.78%.
To `CCc1ccc(C(C)NC(=O)C2CCCC2)cc1` (stereo not shown) belongs 13.1%; to `O=S1(=O)C=C(Sc2nc3ccccc3s2)c2ccccc21`, 6.92%; to `COc1ccc2oc(C(=O)OCc3c(C)noc3C)c(C)c2c1`, 14.2%.
Take `CC(=O)O/C(=C\c1cn(C(C)=O)c2ccccc12)C(=O)O`: the “hERG current change (%, negative = inhibition) at 10uM” value turned out to be 18.8%.
In the case of `CNc1oc(-c2ccco2)nc1C#N`, the “hERG current change (%, negative = inhibition) at 10uM” value was -24.9%.
As to `CC(C)(C)S(=O)(=O)c1cnc2c(S(=O)(=O)c3ccccc3)cnn2c1N`, the “hERG current change (%, negative = inhibition) at 10uM” value is listed as -9.97%.
For `COc1ccc(CN(Cc2ccccn2)C(=O)CN2C(=O)C(C)Oc3ccccc32)cc1` (stereo not shown), the “hERG current change (%, negative = inhibition) at 10uM” value was -3.36%.
To `CCOC(=O)NC(NC(=S)Nc1ccccc1OC)C(Cl)(Cl)Cl` (stereo not shown) belongs 21.1%; to `CCOC(=O)n1ccc(C(=O)Nc2ccccc2F)n1`, 4.37%.
Turning to `Cc1ccc2c(c1)nnn2C1CCN(CC(=O)N2CCN(c3ccc(F)cc3)CC2)CC1`, the “hERG current change (%, negative = inhibition) at 10uM” value is listed as -70.3%.
The same measure for `COc1ccc(OCc2nnc(SCC(=O)Nc3cccc(C(C)=O)c3)o2)cc1`: 4.32%.
For `COc1ccccc1NC(=O)Cn1c([N+](=O)[O-])cnc1C`, the “hERG current change (%, negative = inhibition) at 10uM” value was 11%.
On to `Cn1c(CCN2CCOCC2)nc2cc(NC(=O)c3cccs3)ccc21`, for which the “hERG current change (%, negative = inhibition) at 10uM” value is -19%.
For the molecule `CN(C)/C(=N\S(=O)(=O)c1ccc(F)cc1)c1ccccc1`, the “hERG current change (%, negative = inhibition) at 10uM” value is recorded as 13%.
Regarding `O=C(NC1C(=O)NNC1c1ccccc1)c1ccccc1` (stereo not shown), the “hERG current change (%, negative = inhibition) at 10uM” value is on record as -13.1%.
On to `COC(=O)C1=C(c2ccc(S(C)(=O)=O)cc2)C[C@@H]2CC[C@H]1N2C(=O)N1CCCCC1`, for which the “hERG current change (%, negative = inhibition) at 10uM” value is reported as -1.44%.
As for `COc1ccc(NC(=O)CCC2CCCC2)cc1OC`, the “hERG current change (%, negative = inhibition) at 10uM” value is -1.47%.
To `O=C(O)CSCC(=O)Nc1ccccc1` belongs -0.892%; to `Cc1cc(C)c(C(=O)Nn2c(C)nc3ccccc3c2=O)cc1C`, -26.7%; to `COc1ccccc1C1C(C(N)=O)=C(C)Nc2nc(CCCO)nn21` (stereo not shown), 14.2%.
On to `COCCNC(=O)NC(=O)COC(=O)C12CC3CC(CC(NC(C)=O)(C3)C1)C2`, for which the “hERG current change (%, negative = inhibition) at 10uM” value came to 14.3%.
On to `O=S(=O)(c1ccccc1)N1N=C(c2ccc(O)cc2)CC1c1ccco1` (stereo not shown), for which the “hERG current change (%, negative = inhibition) at 10uM” value was -0.0746%.
To `COC(=O)c1cc(=O)n(Cc2ccc3c(c2)OCO3)c(=Nc2ccc(F)c(Cl)c2)s1` belongs 17.7%; to `O=c1cc2ncc(-n3cc([N+](=O)[O-])cn3)cn2[nH]1`, 15.6%; to `Cc1cccc(N2CCN(C(=O)c3ccc4c(c3)OCCO4)CC2C)c1` (stereo not shown), -2.67%.
In the case of `Cc1nnc(NC(=O)C23CC4CC(CC(C4)C2)C3)s1`, the “hERG current change (%, negative = inhibition) at 10uM” value was determined as 20.2%.
Take `COc1ccc(CNc2nc(-c3cccnc3)nn2C(C)=O)cc1`: the “hERG current change (%, negative = inhibition) at 10uM” value is recorded as -6.28%.
To `COC(=O)c1cc(OC)c(OC)cc1NC(=S)Nc1cc(Cl)ccc1OC` belongs 11.2%.
Turning to `S=C1NC2=C(CCCC2)C2(CCCCC2)N1`, the “hERG current change (%, negative = inhibition) at 10uM” value was determined as 20%.
Take `Cc1ccc(NS(=O)(=O)c2cc(NC(=O)c3cc(=O)[nH]c(=O)[nH]3)ccc2Cl)c(C)c1`: the “hERG current change (%, negative = inhibition) at 10uM” value is given as -1.05%.
As for `COc1ccc(-c2nn(-c3ccccc3)cc2C2CC(c3cccs3)=NN2C(=O)CCCC(=O)O)cc1` (stereo not shown), the “hERG current change (%, negative = inhibition) at 10uM” value turned out to be 17.9%.
For `O=C(Nc1nnc(-c2ccccc2Cl)s1)C1CCN(S(=O)(=O)c2ccc(Cl)cc2)CC1`, the “hERG current change (%, negative = inhibition) at 10uM” value was found to be 28.1%.
As to `C=CCn1c(SCC(=O)Nc2ccc3c(c2)OCO3)nnc1-c1ccccc1`, the “hERG current change (%, negative = inhibition) at 10uM” value is recorded as -34.7%.
Regarding `Cc1ccc(S(=O)(=O)Oc2ccccc2/C=C2/SC(=O)NC2=O)cc1`, the “hERG current change (%, negative = inhibition) at 10uM” value is reported as 30%.
Consider `CCOC(=O)c1cnc2[nH]c3ccccc3n2c1=O`, for which the “hERG current change (%, negative = inhibition) at 10uM” value is reported as 46.3%.
For the molecule `CCc1cccc(CC)c1NC(=S)Nc1ccccc1`, the “hERG current change (%, negative = inhibition) at 10uM” value worked out at 13.4%.
As for `Cc1c(NC(=O)OCCSc2nc(N(C)C)nc(N(C)C)n2)sc(=S)n1C`, the “hERG current change (%, negative = inhibition) at 10uM” value stood at 5.97%.
For `NC(=O)CC(NC(=O)Cc1ccc(Br)cc1)c1ccc(NCc2ccccn2)c([N+](=O)[O-])c1` (stereo not shown), the “hERG current change (%, negative = inhibition) at 10uM” value was determined as 6.99%.
The same measure for `O=c1c2ccccc2nc2c3ccccc3c(NCCN3CCOCC3)nn12`: -72.2%; for `CC1=NN(c2ccc(C(=O)O)cc2)C(=O)/C1=C\c1ccc(OC(=O)c2cccs2)cc1`: 21%.
In the case of `COc1ccc(/C=C2\CCOC2=O)cc1`, the “hERG current change (%, negative = inhibition) at 10uM” value is -0.536%.
As for `O=C1c2ccccc2C(=O)N1CCCc1nc2ccccc2c(=O)n1-c1cccnc1`, the “hERG current change (%, negative = inhibition) at 10uM” value is -39.7%.
Take `CCN(CC)CCCNc1nc(SC)nc2sc3c(c12)CCN(C)C3`: the “hERG current change (%, negative = inhibition) at 10uM” value was 11%.
As to `NS(=O)(=O)c1ccc(CNC(=O)c2sccc2-c2ccccc2)cc1`, the “hERG current change (%, negative = inhibition) at 10uM” value is recorded as 6.45%.
Take `O=C(Cn1c2ccc(F)cc2c2nc3n(c(=O)c21)CCS3)Nc1ccc(Cl)cc1F`: the “hERG current change (%, negative = inhibition) at 10uM” value was -10.4%.
As to `Cc1ccc(S(=O)(=O)NCC(=O)OCc2cc(=O)oc3cc(C)ccc23)cc1`, the “hERG current change (%, negative = inhibition) at 10uM” value was -3.27%.
